The values below come from PubChem BioAssay (NCI).

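1) Cells in 96-well plates. 2) Compound, 48 h, 5 concentrations. 3) Linear interpolation between surrounding doses. 4) Unreached endpoint = highest concentration. GI50 = concentration required for 50% inhibition of growth. Definition used: TGI = concentration required for complete inhibition of growth.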

This assay has as its system NCI-H322M lung. In words: growth of human tumour cells (NCI), 48 h.
Turning to `CCn1c(SCC(=O)Nc2cccc(C(=O)/C=C/c3cc(OC)c(OC)c(OC)c3)c2)nc2ccccc2c1=O`, the GI50 is 3.58 µM and the TGI is over 100 µM.

For `C#Cc1nc(C(=O)NCCC(=O)Nc2ccc(NC(=O)c3ccc(/C=C/C(=O)c4nccn4C)cc3)cc2)cs1`, the GI50 was 3.53 µM and the TGI is over 50 µM.

With `COc1ccccc1NC1=C(Cl)C(=O)c2nc(C)ccc2C1=O`, the GI50 was 2.5 µM and the TGI came to 7.69 µM.
